Measured values as given in ChEMBL document CHEMBL4888484, “Replenishing the malaria drug discovery pipeline: Screening and hit evaluation of the MMV Hit Generation Library 1 (HGL1) against asexual blood stage Plasmodium falciparum ,using a nano luciferase reporter read-out” (2022).
Out of some 150,000 compounds screened, about 540 (0.36%) showed an effect of 50% or more. Some of the results follow.

Test system: Plasmodium falciparum
Experiment: Primary screen in NF54 nanoGlo assay, in single point, at 2uM, 72h; a lower Z score goes with more inhibition
Type: functional, Erythrocyte
Conditions: timepoint 72 hour

| SMILES | % Inhibition | Z score |
| --- | --- | --- |
| CC(NC(=O)C(C)N1CCN(C)CC1C)c1ccc2c(c1)OCCO2 (stereo not drawn) | -11% | 1.16 |
| O=C(Nc1nccnc1C(=O)NC1CCN(S(=O)(=O)c2ccc(Cl)cc2)CC1)c1ccc(F)c(F)c1 | -1% | 0.09 |
| O=C(C(=O)N1CCOCC1)c1c(-c2ccc(Cl)cc2)cc2ccccn12 | -8% | 1.24 |
| CCCC(NC(=O)N(C)CC1CCCC1O)c1ccccn1 (stereo not drawn) | -6% | 0.49 |
| O=C(N[C@H]1CCN(C(=O)C2CCC2)C1)c1ccccc1 | -1% | 0.22 |
| Cc1cc(F)ccc1-c1ccc(C(=O)N2CC[C@@H](N)C2)cc1F | 5% | -0.72 |
| Cc1nnc2n1CCC[C@@H]2NCc1cc(F)ccc1Br | -2% | 0.23 |
| Cc1ccc2c(c1Br)CN(C(=O)NCC[C@H]1CCCOC1)C2 | -4% | 0.77 |
| c1ccc(CCOCC2CCNCC2)cc1 | 29% | -3.33 |
| CCC1(CNS(=O)(=O)Cc2ncsc2Br)CC1 | 4% | -0.61 |
| COc1ccccc1C(=O)Nc1ccc(Oc2nc3ccccc3n3c(C)nnc23)cc1 | -2% | 0.19 |
| CN(CCc1cnccn1)Cc1c(Cl)cccc1C(=O)O | -10% | 1.92 |
| Cc1ccc(CNC(=O)c2[nH]nc3c2CCCC3)o1 | -13% | 1.78 |
| O=C(Nc1ccccn1)C1C2CCC3C(CCC21)C3(Cl)Cl (stereo not drawn) | -14% | 1.51 |
| O=C(CCC(=O)c1ccccc1)NCC#CCOc1cccc(C(F)(F)F)c1 | -8% | 1.3 |
| Cn1cc([C@@H]2CCCN2CCOc2cccc(C#N)c2)cn1 | -13% | 1.64 |
| COCCCN1CCN(Cc2ccccc2)CC[C@H]1c1nc(C)n[nH]1 | -2% | 0.35 |
| Cc1cnc(C)c(N2CCC[C@@](CO)(CC3CC3)C2)n1 | 5% | -0.75 |
| O=C(NCCN1CCCCC1)c1ccc2c(=O)n(-c3ccc(F)cc3)c(N3CCCC3)nc2c1 | -10% | 1.8 |
| Cc1ccccc1OC[C@H](O)C(=O)NCCC(=O)Nc1cc(F)ccc1F | 1% | -0.11 |
| CN1CCC[C@H](CNC(=O)c2cccc(CC(=O)O)c2)[C@H]1c1ccccc1 | -4% | 0.63 |

| SMILES | % Inhibition | Z score |
| --- | --- | --- |
| CCOC(=O)c1cc(-c2ccc(N3CCN(C(=O)c4ccc(F)cc4F)CC3)cc2)n(-c2cccc(F)c2)n1 | -6% | 0.69 |
| C[C@H]1Cc2ccccc2N1C(=O)Cn1cc(S(=O)(=O)Cc2ccccc2)c2ccccc21 | 1% | -0.18 |
| C[C@H](c1ccccc1)N(CC(N)=O)C(=O)c1cc(C(F)F)n(C)n1 | 0% | -0.02 |
| COc1cc(C)c(CN2CCC[C@H](CN3CCN(C)CC3)C2)cc1C | -7% | 0.62 |
| O=S(=O)(CCCOc1ccccc1)NC[C@H]1CCCN1c1ccccc1 | -13% | 2.45 |
| CCC(C(=O)N1CCC(c2nc(C)no2)C1)N1CCCC1=O (stereo not drawn) | -18% | 2.42 |
| COc1ccc(CNC(=O)[C@H]2C[C@@H](C(=O)Nc3ccc(F)cc3)CN(CC(C)C)C2)cc1 | -8% | 0.99 |
| CCCN1CC(CNS(=O)(=O)C2CCOC2C)CC1=O (stereo not drawn) | -6% | 0.67 |
| CN1C(=O)COC(C(=O)N2CCCc3n[nH]cc32)C1c1ccccc1 (stereo not drawn) | -3% | 0.34 |
| CCCCNC(=O)[C@@H]1C[C@H](COc2ccc(C)nc2)CN(Cc2ccc(OC)c(OC)c2)C1 | -5% | 0.55 |
| N#Cc1nc(-c2cccnc2)oc1NCCc1ccccc1 | 2% | -0.3 |
| COc1ccccc1N(CC(=O)Nc1cc(C)on1)S(=O)(=O)c1ccc(F)cc1 | -1% | 0.23 |
| COc1cc(OC)c2ncnc(N3CCC([C@@H]4CCCN4)CC3)c2c1 | -7% | 1.38 |
| Cc1ncccc1C(=O)Nc1ccc2c(c1)N(C)CCN(C)C2 | -16% | 1.37 |
| CC1CC2CCCCC2N1C(=O)Nc1cnns1 (stereo not drawn) | -10% | 1.41 |
| Cc1cccc(CNC(=O)[C@]2(C)Cn3cnc(C(=O)N4CCCCCC4)c3C(=O)N2C2CC2)c1 | -16% | 1.65 |
| O=C(c1cccc2ccccc12)N1CC2C3CCC(O3)C2C1 (stereo not drawn) | 0% | -0.01 |
| CC1=C(CCN2CCC3(CC2)C[C@@H]3C(=O)N2CCN(c3ccccc3)CC2)C(C)(C)CCC1 | 1% | -0.17 |
| C#Cc1cccc(NC(=O)N[C@H](CCO)c2ccccc2)c1 | 5% | -0.92 |
| C[C@@H](c1ccccn1)N(Cc1ccccc1)C(=O)NC1CC1 | 7% | -1.16 |
| O=C(CNC(=O)C(F)(F)[C@H](O)c1ccccc1)NC1CCCC1 | -8% | 1.52 |

| SMILES | % Inhibition | Z score |
| --- | --- | --- |
| CCCN(CCC(=O)N1CCNCC1)S(=O)(=O)c1ccc(CC)cc1 | -3% | 0.52 |
| CN1C[C@]2(CCN(c3cc(N4CCC(O)CC4)ncn3)C2)OC1=O | -14% | 1.28 |
| CCC(=O)NS(=O)(=O)Cc1cc(OC)ccc1Br | -12% | 2.27 |
| C[C@H](NC(=O)c1cc(=O)n(-c2ccccc2)[nH]1)C1=CCCCC1 | -14% | 1.75 |
| O=C(CN1C(=O)NC2(CCS(=O)(=O)CC2)C1=O)Nc1cccc(Cl)c1 | 10% | -1.15 |
| Cn1cc([C@H]2C[C@@H]2C(=O)N2CCc3c(C#N)cccc32)cn1 | -20% | 2.78 |
| CCC(CC)N1C[C@]23C=C[C@H](O2)C(C(=O)N2CCNC(=O)CC2)C3C1=O (stereo partly drawn) | 3% | -0.37 |
| O=C(CN1CCO[C@@H](CC(c2ccccc2)c2ccccc2)C1)NC1CC1 | -10% | 1.85 |
| COc1cccc(C2C(NCc3nc(C)c(C)o3)CCN2C2CC2)c1 (stereo not drawn) | -13% | 1.26 |
| CC(C)(C)OC(=O)N1CC2CC1C2NC(=O)C1CC=CCC1 (stereo not drawn) | 14% | -1.67 |
| O=C(NCc1ccno1)c1cnn(CC2CCCC2)c1 | -15% | 1.68 |
| Cc1ccc2nc(-c3ccc(F)cc3)c(CN[C@H]3CCOC(C)(C)C3)cc2c1 | -3% | 0.6 |
| COc1ccc(S(=O)(=O)N2CCNC[C@](C)(F)C2)cn1 | -6% | 1.13 |
| C[C@H](OC(=O)COc1cccc(Cl)c1)C(=O)N1CCc2ccccc21 | -7% | 0.93 |
| CCOc1cc(C(=O)NC[C@H]2CN(c3nncs3)CCO2)n[nH]1 | -5% | 0.57 |
| COCCN(Cc1ccc(OC)c(OS(=O)(=O)c2ccc(F)cc2)c1)C(=O)c1ccco1 | -7% | 0.94 |
| NC(=O)C1CCN(c2ccc(NC(=O)c3cccc(Br)c3)cc2S(=O)(=O)N2CCOCC2)CC1 | -2% | 0.22 |
| CONC(=O)C=C(C)c1ccccc1Cl | -10% | 1.83 |
| CCN(c1ccncc1)S(=O)(=O)CCO[C@H]1CCOC1 | -6% | 0.86 |
| O=C(NS(=O)(=O)c1cccc2c1OC(F)(F)O2)C1C2CCCCC21 (stereo not drawn) | -13% | 2.02 |
| Cc1cc(NC(=O)CN2C(=O)CCC2=O)sn1 | -4% | 0.75 |

| SMILES | % Inhibition | Z score |
| --- | --- | --- |
| CN(CC(=O)Nc1ccc(Cl)cc1)C(=O)C1CCC1 | 7% | -0.77 |
| CC(C)COCC(O)CN1CCOC(CN(CC(C)C)C(=O)c2ccc(F)cc2)C1 (stereo not drawn) | -19% | 1.81 |
| COc1ccc(CCC(=O)N2CC[C@H](Oc3ccc(C)nn3)C2)cc1 | -7% | 1.13 |
| CC1=C(C(=O)N2CCN(C(=O)c3ccc4[nH]cnc4c3)CC2)CCC1 | -3% | 0.52 |
| CCN(CC)C(=O)N1CCC(C(=O)Nc2cc(CN(C)C)ccn2)CC1 | 2% | -0.36 |
| NS(=O)(=O)C1(c2nc(-c3ccc(Br)o3)no2)CC1 | -11% | 1.82 |
| Cc1nn(C)c2c1N(C(=O)OC(C)(C)C)C[C@H](C)N2 | 3% | -0.4 |
| Cc1ccnc(NC(=O)[C@H]2CCCO2)c1Br | -5% | 0.92 |
| Cc1nc(C)c(Cn2cncc(Br)c2=O)s1 | -1% | 0.14 |
| CCc1nnc(C(=O)N[C@H]2CCS(=O)(=O)C3(CCC3)C2)s1 | -13% | 1.36 |
| CC1CCN(CC(O)CN2CCCC2c2cnn(C)c2)CC1 (stereo not drawn) | -6% | 0.83 |
| CCN1CCO[C@H](C(=O)Nc2cccc(-n3c(C)c[nH]c3=O)c2)C1 | -21% | 3.91 |
| CC(=O)N1CCC(C(=O)Nc2cccc(-c3noc(C4CCCC4)n3)c2)CC1 | -11% | 1.9 |
| CCCN1CCC2(CC1)Nc1ccccc1N(CC(C)(C)C)C2=O | 7% | -1.02 |
| CC(C)c1nsc(N2CCC(O)(c3ncnn3C)CC2)n1 | 6% | -1.1 |
| Cc1cnc(C2CC2)n1C1CCN(C(=O)[C@H](C)Oc2ccccc2)CC1 | -8% | 1.05 |
| COCCN(Cc1ccsc1)C(=O)NCc1ccc(F)cc1 | -13% | 1.85 |
| COc1ccc(CN(C(=O)NC[C@H]2CCCO2)C2CCCC2)c(OC)c1OC | -2% | 0.26 |
| CC[C@@H](C(=O)Nc1ccccc1C(F)(F)F)n1nc(C)c2c(C)onc2c1=O | 4% | -0.4 |
| CCn1cnc2cc(-c3noc(-c4cc5ccccc5[nH]4)n3)ccc21 | 4% | -0.52 |
| Cc1cnc2c(Cl)c(C(=O)NCCN3CCCC[C@@H]3CO)nn2c1 | -9% | 1.44 |
